In the RNAGym collection of RNA variant scans (doi:10.7554/elife.90254):
The source gives no read counts; variants with many changes may rest on few reads.

B1: LINE1-mini (parent)
chain: GGCAGAGCUCAACACAGCGUGGCAAAGUGGCUGUGGCUAGACUGCC

Variants of: B1
Experiment: self-cleavage, relative activity (ratio to wild type); higher = more cleavage; in vitro, sequencing; the parent is a self-cleaving ribozyme

Variant	self-cleavage
G1C G5U C8G C13U G22U C31G G35C G40U	0.01
G1C A12G U28G U34A C45G	0
G1C G21U A24U G29C	0.06
G1C C3U C45A	0.14
G1C C10A C42G C46G	0
G1C G5A A14C U34A A39U C42A	0
G1C C8A C42U	0.02
G1C C15U C23U C31U	0.04
G1C C15U A16G G27U C46A	0.03
G1C A26C U43A	0.03
G1C C10U G40C	0.03
G1C C18U G22C U28G	0.02
G1C C15A A39G	0.02
G1C C18U C23A	0.16
G1C A14G G33C C37A	0.01
G1C C8U A14G C15A C23U G29U	0.03
G1C G5U C15A A16C G21C G30C	0.02
G1C A25C G40A	0.01
G1C C37G A41C U43G	0
G1C G21U U28A A39G	0.08
G1C A12U A14U A25U U32C G40U	0
G1C G7A U38C A39C	0.08
G1C C15U G30C U34C C37A	0.04
G1C G19U G33C	0

Variant	self-cleavage
G1C C15A A16U	0.01
G1C G5C U9G G21U	0.03
G1C C10U C13A G17A A41G C42A	0.02
G1C C10A G21U	0.04
G1C A24U G27U	0.13
G1C G5A A11C G17C G27C	0
G1C C8U U20C	0.02
G1C G2C C8U C13G	0.07
G1C G17C C42G	0.01
G1C A39U C42A	0.01
G1C C31U C42G C46U	0.01
G1C A39U C45A C46G	0.03
G1C C8A A11C G17C G22C G33C U38A U43A	0
G1C A25G G36C	0
G1C C37U C45U	0.02
G1C C3U G35U	0.63
G1C C15A G27A U38A G40U A41G U43G	0.01
G1C C10A C15A G36A	0.02
G1C C8A A16U C37G U43A	0.02
G1C A25U U38A G40C	0.03
G1C C45U C46A	0.08
G1C C15A C42G	0
G1C A16U C18G G27U	0.04
G1C C18A C42A	0

Variant	self-cleavage
G1C A16C G17U C23G U38A G40A	0.01
G1C C3U C8A C23U	0.21
G1C G17U G21U C23G	0.02
G1C G21U G29A U32G U38C C42U	0
G1C G2A C18U A24U C37A	0.01
G1C C13A G21U G35U	0.13
G1C G2U C13A C37U	0.09
G1C G7C G21C U32C	0.02
G1C A14G U20A A26U	0.01
G1C C18A C23U G35U	0
G1C C3U A12G G29A U34G	0.01
G1C A14U C37U A41C	0.01
G1C C15U G17C G19A G35U G40A	0.02
G1C G19U G35C	0.02
G1C G2C C3A	0.03
G1C C8G A24C	0.01
G1C C13U C18G G27C	0
G1C C3U C8A C46G	0.24
G1C C3G G7U C10A G19U C31G	0.03
G1C C18A A24U G30C C37U G40U	0.02
G1C C3U A16U	0.02
G1C C10A C23G	0
G1C C10A C23U	0.01
G1C G2C G19U C23U A24U G30U C45A	0.02

Variant	self-cleavage
G1C G2A U28A G33A	0.04
G1C C8A A11G U20C G22A U38A	0
G1C G7A C10G G19C C45U	0.01
G1C C8G A16U C31G U38C	0
G1C C8G G40U	0.03
G1C G22A G44U	0.06
G1C G5U G19U A25G	0.06
G1C C10G A11G G35U G36A	0
G1C G2U C8G G40U	0.12
G1C C18U G30A C46U	0.17
G1C A14C G19U G21C	0.01
G1C C23A U34A G44A C46U	0.05
G1C C8G C15G G33A	0.01
G1C C37A G40U	0.05
G1C G2U A25U G36A G44C	0.08
G1C G5U C8G G22U G30U	0.02
G1C C18G C37A G40C	0.01
G1C G2C G22C G27A G35C	0.03
G1C C3U G21A G29U C31U	0
G1C C10U G33A U43G	0.01
G1C G5C G30C U38G	0
G1C C13A A24C	0.02
G1C G5C G7A U20G U38G A41C	0.01
G1C A25G A26C G29A C31G	0.01

Variant	self-cleavage
G1C G2A G27C A39C	0.04
G1C C3A C18A G19U U43A	0.03
G1C G2C A6U G21C G36U	0.01
G1C C8A G29C U34A A39U	0
G1C G2A G33A G35U	0.06
G1C C13A A14C G22C A25U A26G G30A	0.02
G1C C13G G44U	0.06
G1C G19A U43G C45A	0.02
G1C C3G G19U G29U C31A	0.05
G1C C3A C23G G27U	0.19
G1C A12G U32G G33U A41G	0.02
G1C G5U A6G C10G C18U G27A	0.02
G1C C8G G19U G27U A41U	0.03
G1C G5U U9G A24G G40U	0.01
G1C C3A G22A	0.16
G1C C3G G29U U43A	0.09
G1C G19A U38A	0.07
G1C C3U G17A C23A G27A G29C U34A	0.05
G1C C18A U20G C23U A26U	0.01
G1C G17C A26G G30A G35U	0.03
G1C C3U C13G G27A	0.19
G1C G2U U9C A12U C13A A16C	0
G1C C37G U38C C45U	0.01
G1C A16G C37G	0.02

Variant	self-cleavage
G1C C10U A11C G19A C31U G35A C42A	0
G1C C3G C45A C46A	0.02
G1C A16G A24U	0.16
G1C C18G U28A	0
G1C G5U C10G G21C C46A	0.01
G1C G21U G40U	0.05
G1C G2A C3G C18G G35U A41G	0.07
G1C C8U A14G U38G	0.01
G1C C10A U32A C46A	0
G1C C8U G21C C23G G27C G36U C37U G44C	0.01
G1C G5U C15U A26U G30C	0
G1C C8U A25U U28C U43A	0.01
G1C C10A C13G	0
G1C A26C U28A U38A C42U	0.02
G1C A16U U20A G27A G44A	0.02
G1C G5U C23G G29U	0.01
G1C C23U G29C	0.09
G1C C23U C31G C37G	0.02
G1C C13G C31U G44U	0.01
G1C C8G G19A G36U	0
G1C C37U G40U	0
G1C C3U A16G G19C	0.03
G1C C10U G17C C18U G22C G33A A39C	0
G1C A16U G36C	0.02

Variant	self-cleavage
G1C C18A G44U C46A	0.02
G1C C8G C23G G40A U43A C45U	0.01
G1C C10U G22A C46U	0.03
G1C A16G G30C U34G	0.02
G1C C8A C10G G40A	0
G1C A14C A25G G33C	0.03
G1C C8A G19A A24C	0.03
G1C C31U C42U U43A	0
G1C C8A G21C	0.04
G1C G7A A25C C46U	0.03
G1C C8A G44U	0.06
G1C C15U C42A	0.04
G1C A12U C15U G40A C46A	0.01
G1C G5U G7U A11U A26C G35U	0
G1C C3G A16C C18A G30A	0.02
G1C G7U G22U C23A G33U U34G U38A A41G	0.08
G1C A24U U34G U38G	0.02
G1C G22A C37U G40C	0
G1C G2A G29C C46A	0.13
G1C G5U U32C	0.01
G1C C3G U9A C13G G19U G40A	0.12
G1C C10G C15A U20G G33A C37G G40U	0
G1C G21U C45G	0.03
